Test results taken from PubChem BioAssay AID488969 (Vanderbilt High Throughput Screening Facility, 2010).
Over roughly 110,000 compounds, “z-score” has its median near -0.1; the highest 2% begin near 2. Some of the results follow. Active and inactive are the calls of the source.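 Rule for the calls: active = z-score in the third read window above 3 or below -3; inactive = the rest.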

The compounds below were run against Metabotropic glutamate receptor 8 (Rattus norvegicus) (UniProt P70579) (assay: mGluR8 Gi/Go-coupled signaling modulation – cell-based, rat, thallium flux, HTS, primary screen (AID 488969)). Conditions: HEK293 rat mGluR8, GIRK (G protein-gated inwardly rectifying potassium channel) thallium flux, FluoZin2; at 10 µM; stronger effect = higher value; submaximal glutamate (EC20) added with thallium.
Chain of UniProt P70579 (P70579 whole entry, looked up): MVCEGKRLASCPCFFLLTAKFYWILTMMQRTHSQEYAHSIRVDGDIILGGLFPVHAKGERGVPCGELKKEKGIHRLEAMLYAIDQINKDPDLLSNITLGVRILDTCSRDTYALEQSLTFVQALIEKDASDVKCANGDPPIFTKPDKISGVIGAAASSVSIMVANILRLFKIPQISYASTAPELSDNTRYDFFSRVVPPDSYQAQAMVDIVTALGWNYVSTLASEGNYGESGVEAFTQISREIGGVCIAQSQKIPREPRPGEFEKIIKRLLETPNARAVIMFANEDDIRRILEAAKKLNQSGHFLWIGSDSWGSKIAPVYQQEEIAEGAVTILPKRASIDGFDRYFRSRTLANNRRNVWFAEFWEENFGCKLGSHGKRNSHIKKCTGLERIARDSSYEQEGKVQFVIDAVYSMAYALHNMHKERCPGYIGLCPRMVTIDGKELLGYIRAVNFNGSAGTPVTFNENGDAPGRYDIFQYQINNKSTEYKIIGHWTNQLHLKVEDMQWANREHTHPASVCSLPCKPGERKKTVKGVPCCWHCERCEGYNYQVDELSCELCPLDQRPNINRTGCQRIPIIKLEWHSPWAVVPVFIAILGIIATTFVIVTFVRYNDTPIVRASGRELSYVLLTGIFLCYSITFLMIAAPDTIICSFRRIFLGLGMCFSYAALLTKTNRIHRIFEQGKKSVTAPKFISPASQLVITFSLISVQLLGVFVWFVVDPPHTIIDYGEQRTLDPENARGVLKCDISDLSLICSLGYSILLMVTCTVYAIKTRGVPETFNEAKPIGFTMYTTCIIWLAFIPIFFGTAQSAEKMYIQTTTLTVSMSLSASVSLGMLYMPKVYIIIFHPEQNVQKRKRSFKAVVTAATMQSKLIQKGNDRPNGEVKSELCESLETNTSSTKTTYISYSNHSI
For Cc1ccc(NC(=O)C2(c3cccs3)CCOCC2)cc1C, the z-score was -0.0938.
COc1ccc([N+](=O)[O-])cc1NC(=O)Cc1c(Cl)cccc1Cl was tested, and the z-score was -0.12.
For CCCCn1c(CN2CCN(c3ccccc3)CC2)nc2c1c(=O)n(C)c(=O)n2C, the z-score was -0.779.
Compound CCn1c(CSc2nc(C)cc(C)n2)nnc1SCC(=O)Nc1cccc2ccccc12 has a z-score of -2.2.
Compound COc1ccccc1N1CCN(C(=O)c2cc3c(-c4ccc(Cl)cc4)nn(C)c3s2)CC1 has a z-score of -0.537.
Compound CN1CCN(/C(=N\O)c2nonc2N)CC1 has a z-score of 0.8.
O=C(Nc1cnn(Cc2ccc(Cl)c(Cl)c2)c1)c1nc2ncccn2n1 showed a z-score of -0.834.
For CCc1nnc(SCC(=O)N2CCCc3ccccc32)nc1CC, the z-score was -0.635.
With O=C(Nc1ccc2oc(Cc3ccc(Cl)cc3)nc2c1)c1cccnc1 the z-score was -0.377.
CC1SC(c2ccccc2Cl)NC1=O (stereo unspecified) was tested, and the z-score was -0.0543.
Cc1ccc(S(=O)(=O)N2CCOCC2)c2nsnc12 showed a z-score of -0.358.
With O=C1NN(c2ccccc2)C(=O)/C1=C\c1ccccc1OCC(=O)N1CCOCC1 the z-score was -0.207.
CC(Sc1nc2ccc(Br)cc2[nH]1)C(=O)O (stereo unspecified) was tested, and the z-score was -0.936.
CCCn1c(/C=C/c2ccco2)nc2ccccc21 gave a z-score of -0.653.
With Cc1ccc(Sc2c(C(=O)Nc3ccc(F)cc3F)c(C(F)(F)F)nn2C)cc1 the z-score was -0.15.
CCc1nnc(NC(=O)c2c(OC)cccc2OC)s1 gave a z-score of -0.213.
COC(=O)C1=C(C)NC(C)=C(C(=O)OC)C1c1ccc(-c2cc(Cl)ccc2Cl)o1 showed a z-score of -0.164.
With COc1ccccc1OCCCCCc1c(C)n[nH]c1C the z-score was -0.151.
Work on O=C(NCCCCCCNC(=O)c1ccc(Br)s1)c1ccc(Br)s1 yielded a z-score of -0.926.
For COc1ccc(NC(=O)NCCCN2CCCC2=O)c(OC)c1, the z-score was -0.496.
O=C(N/N=C/c1cccnc1)C(O)c1ccccc1 (stereo unspecified) showed a z-score of -0.144.
Compound c1ccc(N2CCN(c3cnc4ccccc4n3)CC2)cc1 has a z-score of 1.09.
With CC(C)Cn1c(-c2csc3ccccc23)n[nH]c1=S the z-score was 0.509.
CC1CCC(NC(=O)CC2Oc3ccccc3NC2=O)CC1 (stereo unspecified) showed a z-score of -0.471.
In the case of CC(c1nc2ccccc2o1)N1C(=O)c2ccccc2C1=O (stereo unspecified), the z-score was -0.0989.
For CC1=CC2(O)OCCN(CCO)C2=CC1=O (stereo unspecified), the z-score was 0.00259.
Compound Cc1sc2ncn(CC(=O)NCCCC(=O)N3CCN(c4ccccc4)CC3)c(=O)c2c1C has a z-score of 0.62.
In the case of COc1cccc(OCC(=O)Nc2cc(Cl)ccc2Oc2ccccc2)c1, the z-score was 0.0395.
For CC1=CCC(C(=O)O)(C(=O)N/N=C/c2cccs2)C(c2ccc(F)cc2)C1 (stereo unspecified), the z-score was -0.338.
In the case of CCC(=O)Oc1ccc(C/C(=N\O)c2ccc(O)cc2O)o1, the z-score was active: -4.27.
COCCn1c(COc2ccc(OC)cc2)nc2ccccc21 was tested, and the z-score was -0.206.
In the case of Cc1cc(C)n(-c2ccc(C(=O)NC(C)C)cc2)n1, the z-score was 0.502.
In the case of Cc1cc(N)n2nc(C)c(-c3ccccc3)c2n1, the z-score was -0.519.
Compound CC1Oc2ccccc2C=C1C1/C(=C(/O)c2ccccc2)C(=O)C(=O)N1CCCN(C)C (stereo unspecified) has a z-score of -0.085.
Compound Cc1ccc(N2C(=O)[C@@H]3[C@H](C2=O)[C@H]2C=C(C(=O)c4ccccc4)C=CN2[C@@H]3C(=O)c2ccc(Cl)cc2)cc1 has a z-score of 0.782.
For Cc1nc(Nc2nc(CSc3nc4ccccc4[nH]3)cc(=O)[nH]2)nc2ccccc12, the z-score was -0.218.
CCCCOc1ccc(NC(=O)C2OC3OC(C)(C)OC3C3OC(C)(C)OC23)cc1 (stereo unspecified) was tested, and the z-score was -0.0505.
Cc1ccc(C(=O)NNC(=O)C2CCN(Cc3ccccc3)CC2)cc1 gave a z-score of 0.137.
Compound CC(=O)c1cccc(NC(=O)N2CCCC2C(=O)NCc2ccc(C)cc2)c1 (stereo unspecified) has a z-score of -0.0933.
In the case of O=C(O)CCc1ccc(-c2cccs2)n1NC(=O)c1ccccc1Br, the z-score was -0.93.
c1ccc2cc(Sc3ncnc4c3oc3ccccc34)ccc2c1 showed a z-score of -0.143.
Compound Cc1ccc(-c2nnc(SCC(C)C)n2C)cc1 has a z-score of 0.0158.
With O=C1CC(Nc2ccc3ccccc3c2)C(=O)N1Cc1ccccc1 (stereo unspecified) the z-score was -0.0912.
For CCOC(=O)C1=NNC(C(=O)c2ccc(OC)cc2)C1c1ccccc1 (stereo unspecified), the z-score was active: -4.76.
Compound C/C(=N\NC(=O)c1ccc(F)cc1)c1cccc(NC(=O)c2ccco2)c1 has a z-score of -0.249.
O=c1c2[nH]c3ccccc3c2ncn1CCN1CCNCC1 showed a z-score of 0.252.
Work on Cc1ccc(S(=O)(=O)n2ccc3cccnc32)cc1 yielded a z-score of -0.282.
Compound CCOc1cc(/C=N/n2cnnc2)ccc1OC(=O)c1cccc([N+](=O)[O-])c1 has a z-score of -0.261.
CCN(CC)CCOc1nc(C)nc2c1oc1ccccc12 showed a z-score of 1.01.
Compound CCOC(=O)CSc1nnnn1-c1cccc2ccccc12 has a z-score of -0.988.
Work on CC(C)CC(=O)Nc1nc(=S)ss1 yielded a z-score of 0.664.
For C[N+]1(C)CC2([N+](=O)[O-])CC=C(Oc3ccccc3)C([N+](=O)[O-])(C2)C1 (stereo unspecified), the z-score was -0.0235.
With CCOc1ccc(/C=C/C(=O)Nc2ccccc2C(F)(F)F)cc1 the z-score was 0.275.
In the case of O=C(Nc1cc(Cl)ccc1Cl)C1CC(=O)N(c2ccc(Br)cc2)C1 (stereo unspecified), the z-score was -0.113.
O=C1CC(c2ccc(S(=O)(=O)NC3CC3)cc2)CN1 (stereo unspecified) gave a z-score of 0.38.
With Cc1ccc(C(C(=O)Nc2ccc3c(c2)OCO3)N(C)C(=O)Cc2c[nH]c3ccccc23)cc1 (stereo unspecified) the z-score was -0.000845.
In the case of COC(=O)C(C)Oc1ccc(=O)[nH]n1 (stereo unspecified), the z-score was 0.923.
Compound Cc1sc2c(c1C)C(=O)NC(c1cccc(O)c1)N2 (stereo unspecified) has a z-score of 1.67.
For O=c1c2ccccc2oc2nc(-c3cccs3)n(CCc3ccccc3)c(=O)c12, the z-score was -0.464.
N#Cc1c(NC2CCCCC2)nc(-c2ccco2)c2c1CCCC2 was tested, and the z-score was -0.268.
Work on CC1CCCCN1S(=O)(=O)c1ccc(S(=O)(=O)N(Cc2ccccc2)Cc2ccco2)cc1 (stereo unspecified) yielded a z-score of 0.0863.
For Cc1ccc(N(CC(=O)N2CCN(C3CCCCC3)CC2)S(=O)(=O)c2cccnc2)cc1, the z-score was -0.0181.
COc1cc(C(=O)Nc2ccc(S(=O)(=O)N3CCCCC3C)cc2)cc(OC)c1OC (stereo unspecified) gave a z-score of -0.162.
Compound Cc1oc(-c2ccccc2F)nc1CS(=O)(=O)CC(=O)NCCN(C)C1CCCCC1 has a z-score of 1.48.
In the case of Cc1ccc(Cl)cc1NC(=O)CCC(=O)Nc1cc(Cl)ccc1C, the z-score was -0.263.
Work on Cc1ccc(S(=O)(=O)NNC(=O)C2CCN(S(=O)(=O)c3ccc(C)cc3)CC2)cc1 yielded a z-score of -0.363.
Compound Nc1nc(SCC(=O)N2CCCC2)[nH]c(=O)c1-c1ccccc1 has a z-score of -0.0491.
With CC1(CC(=O)N/N=C/c2ccc(-c3ccc(Cl)cc3)o2)OCCO1 the z-score was 1.57.
Compound Cc1ccc(NC(=O)c2cc3ccccc3o2)cc1S(=O)(=O)N(C)C has a z-score of -0.399.
COCCN(C(=S)Nc1ccc(OC)cc1)C1CCN(C(C)=O)CC1 showed a z-score of 0.181.
Work on COC(=O)N1CC(c2ccccc2)CC1=O (stereo unspecified) yielded a z-score of 1.03.
